Laboratory results from paper PMC9135253, “Potential of phenothiazines to synergistically block calmodulin and reactivate PP2A in cancer cells” (PLoS ONE, 2022).
Values joined by “and” are separate entries in the source; they are usually repeats but may differ in a detail not shown here. Equal entries are not always repeated. Where two headings read alike, the source gives them in different places.

Assays:
[1] = molecular target: T1, recombinant bovine CaM (Bos taurus, UniProt P62157); experiment: biochemical
[2] = molecular target: T1, recombinant bovine CaM; conditions: for affinity / binding to CaM (in words): fluorescence polarization
[3] = molecular target: Rluc8-K-RasG12V/ GFP2-CaM in HEK-293 EBNA cells (Homo sapiens, UniProt P0DP23); assay type: cell-based; conditions: for remaining activity at 80 µM / remaining activity at 40 µM / remaining activity at 20 µM / remaining activity at 10 µM / remaining activity at 5 µM / remaining activity at 1 µM / remaining activity at 0.1 µM: HEK293-EBNA, 24 h, read-out: normalized BRET ratio; for remaining activity at 40 µM: log c (inhibitor) /M -4.39794; for remaining activity at 10 µM: log c (inhibitor) /M -5; for remaining activity at 5 µM: log c (inhibitor) /M -5.30103; for remaining activity at 1 µM: log c (inhibitor) /M -6; for remaining activity at 0.1 µM: log c (inhibitor) /M -7; for DSS3 BRET score: K-RasG12V/CaM BRET, dose response 0.1–80 μM
[4] = log c /M -4.47712, replicates N1, N2
[5] = log c /M -4.95424, replicates N1, N2
[6] = log c /M -5.43136, replicates N1, N2
[7] = log c /M -5.90848, replicates N1, N2
[8] = log c /M -6.38561, replicates N1, N2
[9] = log c /M -6.86273, replicates N1, N2
[10] = log c /M -7.33985, replicates N1, N2
[11] = log c /M -7.81697, replicates N1, N2
[12] = log c /M -8.29409, replicates N1, N2
[13] = log c /M -8.77121, replicates N1, N2

O=S(=O)(N[C@@H]1CCC[C@H](N2c3ccccc3Oc3ccccc32)[C@H]1O)c1ccc(OC(F)(F)F)cc1 [DT-061]
IC50 [1]: > 3700 µM | Kd [1]: > 200 µM | affinity / binding to CaM (in words) [2]: essentially no binding | Anisotropy values ([2]; log c /M -3.52288, mean): 111.6 | Anisotropy values ([2]; log c /M -3.52288, replicates N1, N2): 105.5 and 117.7 | Anisotropy values ([2]; log c /M -4, mean): 122.4 | Anisotropy values ([2]; log c /M -4, replicates N1, N2): 119.6 and 125.2 | Anisotropy values ([2]; log c /M -4.47712, mean): 127.35 | Anisotropy values [2, 4]: 128.5 and 126.2 | Anisotropy values ([2]; log c /M -4.95424, mean): 118.75 | Anisotropy values [2, 5]: 120.1 and 117.4 | Anisotropy values ([2]; log c /M -5.43136, mean): 117.25 | Anisotropy values [2, 6]: 116.1 and 118.4 | Anisotropy values ([2]; log c /M -5.90848, mean): 113.75 | Anisotropy values [2, 7]: 115.6 and 111.9 | Anisotropy values ([2]; log c /M -6.38561, mean): 115.75 | Anisotropy values [2, 8]: 114.2 and 117.3 | Anisotropy values ([2]; log c /M -6.86273, mean): 115.25 | Anisotropy values [2, 9]: 114.8 and 115.7 | Anisotropy values ([2]; log c /M -7.33985, mean): 112.5 | Anisotropy values [2, 10]: 115.3 and 109.7 | Anisotropy values ([2]; log c /M -7.81697, mean): 114.8 | Anisotropy values [2, 11]: 114.4 and 115.2 | Anisotropy values ([2]; log c /M -8.29409, mean): 112.8 | Anisotropy values [2, 12]: 109.6 and 116 | Anisotropy values ([2]; log c /M -8.77121, mean): 112.9 | Anisotropy values [2, 13]: 112.8 and 113 | remaining activity at 80 µM ([3]; log c (inhibitor) /M -4.09691, non-treated control = 100, replicates N1-N3): 107% | remaining activity at 80 µM ([3]; log c (inhibitor) /M -4.09691, Mean): 111% | remaining activity at 40 µM ([3]; Mean): 109% | remaining activity at 40 µM ([3]; replicates N1-N3): 111% | remaining activity at 20 µM ([3]; log c (inhibitor) /M -4.69897, Mean): 115% | remaining activity at 20 µM ([3]; log c (inhibitor) /M -4.69897, replicates N1-N3): 115% | remaining activity at 10 µM ([3]; Mean): 90.8% | remaining activity at 10 µM ([3]; replicates N1-N3): 95.1% | remaining activity at 5 µM ([3]; Mean): 100% | remaining activity at 5 µM ([3]; replicates): 95.1% | remaining activity at 1 µM ([3]; Mean): 97.2% | remaining activity at 1 µM ([3]; replicates N1-N3): 94.5% | remaining activity at 0.1 µM ([3]; Mean): 92.8% | remaining activity at 0.1 µM ([3]; replicates N1-N3): 91.9% | DSS3 BRET score ([3]; mean): 0 | DSS3 BRET score ([3]; replicates N1-N3): 0 | effect in the K-Ras/CaM BRET assay (in words) ([3]; response to reviewers): no effect

Clc1ccc(C(c2ccc(Cl)cc2)n2cc[n+](CC(OCc3ccc(Cl)cc3Cl)c3ccc(Cl)cc3Cl)c2)cc1 (centres unmarked) [calmidazolium]
IC50 [1]: 0.08 ± 0.04 µM | Kd [1]: 0.0011 ± 0.0001 µM | Anisotropy values ([2]; log c /M -5, mean): 70.7 | Anisotropy values ([2]; log c /M -5, replicates N1, N2, listed as calmidazolium Cl): 71 and 70.4 | Anisotropy values ([2]; log c /M -5.47712, mean): 67.55 | Anisotropy values ([2]; log c /M -5.47712, replicates N1, N2, listed as calmidazolium Cl): 65.9 and 69.2 | Anisotropy values ([2]; log c /M -5.95424, mean): 70.45 | Anisotropy values ([2]; log c /M -5.95424, replicates N1, N2, listed as calmidazolium Cl): 70.1 and 70.8 | Anisotropy values ([2]; log c /M -6.43136, mean): 72.95 | Anisotropy values ([2]; log c /M -6.43136, replicates N1, N2, listed as calmidazolium Cl): 69.7 and 76.2 | Anisotropy values ([2]; log c /M -6.90848, mean): 85.15 | Anisotropy values ([2]; log c /M -6.90848, replicates N1, N2, listed as calmidazolium Cl): 78.3 and 92 | Anisotropy values ([2]; log c /M -7.38561, mean): 96.95 | Anisotropy values ([2]; log c /M -7.38561, replicates N1, N2, listed as calmidazolium Cl): 90.9 and 103 | Anisotropy values ([2]; log c /M -7.86273, mean): 103.65 | Anisotropy values ([2]; log c /M -7.86273, replicates N1, N2, listed as calmidazolium Cl): 95.9 and 111.4 | Anisotropy values ([2]; log c /M -8.33985, mean): 107.9 | Anisotropy values ([2]; log c /M -8.33985, replicates N1, N2, listed as calmidazolium Cl): 102.5 and 113.3 | Anisotropy values ([2]; log c /M -8.81697, mean): 108.7 | Anisotropy values ([2]; log c /M -8.81697, replicates N1, N2, listed as calmidazolium Cl): 102.7 and 114.7 | Anisotropy values ([2]; log c /M -9.29409, mean): 109.7 | Anisotropy values ([2]; log c /M -9.29409, replicates N1, N2, listed as calmidazolium Cl): 103.4 and 116 | Anisotropy values ([2]; log c /M -9.77121, mean): 111.35 | Anisotropy values ([2]; log c /M -9.77121, replicates N1, N2, listed as calmidazolium Cl): 105.2 and 117.5 | Anisotropy values ([2]; log c /M -10.2483, mean): 109.25 | Anisotropy values ([2]; log c /M -10.2483, replicates N1, N2, listed as calmidazolium Cl): 104.1 and 114.4 | DSS3 BRET score ([3]; mean): 14.33 | DSS3 BRET score ([3]; replicates N1-N3): 11.4 and 10.8 and 20.8

FC(F)(F)c1ccc2c(c1)N(CCCN1CCN(CCCl)CC1)c1ccccc1S2 [fluphenazine mustard]
IC50 [1]: 4.9 ± 0.5 µM | Kd [1]: 0.29 ± 0.03 µM | affinity / binding to CaM (in words) [2]: submicromolar affinities | Anisotropy values ([2]; log c /M -4, mean): 66.85 | Anisotropy values ([2]; log c /M -4, replicates N1, N2): 67.3 and 66.4 | Anisotropy values ([2]; log c /M -4.47712, mean): 68.05 | Anisotropy values [2, 4]: 67.2 and 68.9 | Anisotropy values ([2]; log c /M -4.95424, mean): 75.65 | Anisotropy values [2, 5]: 75 and 76.3 | Anisotropy values ([2]; log c /M -5.43136, mean): 94.85 | Anisotropy values [2, 6]: 93.5 and 96.2 | Anisotropy values ([2]; log c /M -5.90848, mean): 105 | Anisotropy values [2, 7]: 104.8 and 105.2 | Anisotropy values ([2]; log c /M -6.38561, mean): 108.95 | Anisotropy values [2, 8]: 108.2 and 109.7 | Anisotropy values ([2]; log c /M -6.86273, mean): 109.35 | Anisotropy values [2, 9]: 108.9 and 109.8 | Anisotropy values ([2]; log c /M -7.33985, mean): 111.1 | Anisotropy values [2, 10]: 110.8 and 111.4 | Anisotropy values ([2]; log c /M -7.81697, mean): 109.95 | Anisotropy values [2, 11]: 109.5 and 110.4 | Anisotropy values ([2]; log c /M -8.29409, mean): 111.45 | Anisotropy values [2, 12]: 111.4 and 111.5 | Anisotropy values ([2]; log c /M -8.77121, mean): 110.15 | Anisotropy values [2, 13]: 111.1 and 109.2 | normalized BRET ratio [3]: 49.87 | remaining activity at 40 µM ([3]; Mean): 41.6% | remaining activity at 10 µM ([3]; Mean): 65.4% | remaining activity at 10 µM ([3]; replicates N1-N3): 57.1% | remaining activity at 5 µM ([3]; Mean): 72.1% | remaining activity at 5 µM ([3]; replicates): 72.1% | remaining activity at 1 µM ([3]; Mean): 85.9% | remaining activity at 1 µM ([3]; replicates N1-N3): 93.2% | remaining activity at 0.1 µM ([3]; Mean): 97.5% | remaining activity at 0.1 µM ([3]; replicates N1-N3): 92.5% | remaining activity at 80 µM [3]: 39.4% | increase of intracellular activity against CaM/ K-RasG12V (DSS3 BRET) compared to Flu ([3]; HEK-293 EBNA): more than a factor of two | DSS3 BRET score ([3]; mean): 13.1 | DSS3 BRET score ([3]; replicates N1-N3): 15.2 and 12.2 and 11.9

OCCN1CCN(CCCN2c3ccccc3Sc3ccc(C(F)(F)F)cc32)CC1 [fluphenazine]
DSS3 BRET score ([3]; mean): 4.73 | DSS3 BRET score ([3]; replicates N1-N3): 5.3 and 3.6

CC(C)=C[C@H]1C[C@H](C)[C@]2(CC[C@]3(C)C[C@H]4[C@H](C(=O)C[C@@]4(C)O)/C(C=O)=C\C[C@H]32)O1 [ophiobolin A]
normalized BRET ratio [3]: 16.38 and 23.8 | remaining activity at 40 µM ([3]; Mean): 20.4% | remaining activity at 40 µM ([3]; replicates N1-N3): 22.1% | remaining activity at 10 µM ([3]; Mean): 30.5% | remaining activity at 10 µM ([3]; replicates N1-N3): 29.1% | remaining activity at 5 µM ([3]; Mean): 45% | remaining activity at 5 µM ([3]; replicates): 45% | remaining activity at 1 µM ([3]; Mean): 82.5% | remaining activity at 1 µM ([3]; replicates N1-N3): 81.2% | remaining activity at 0.1 µM ([3]; Mean): 96.5% | remaining activity at 0.1 µM ([3]; replicates N1-N3): 89.5% | remaining activity at 20 µM [3]: 27.7% | remaining activity at 80 µM [3]: 16.1% | DSS3 BRET score ([3]; mean): 31.3 | DSS3 BRET score ([3]; replicates N1-N3): 27.3 and 28.9 and 37.7
